In the RNAGym collection of RNA variant scans (doi:10.7554/elife.90254):
The source gives no read counts; variants with many changes may rest on few reads.

B1: LINE1-mini (parent)
chain: GGCAGAGCUCAACACAGCGUGGCAAAGUGGCUGUGGCUAGACUGCC

Variants of: B1
Test: self-cleavage, relative activity (ratio to wild type); higher = more cleavage; in vitro, sequencing; the parent is a self-cleaving ribozyme

Row | Variant | self-cleavage
1 | A12C G17U G19U G29A | 0.03
2 | G7A U20A A41U | 0.11
3 | G19C C42A G44C | 0.03
4 | G1A A14C C18U G35U | 0.03
5 | G1A G2A C10A C23A U34C | 0.22
6 | G5A C10A A25U G33A | 0.04
7 | C13A A14U G21C | 0.16
8 | C8U C10A A16G G30U | 0.07
9 | C3A C10U G40A | 0.06
10 | A14C A24U G27U U38A | 0.09
11 | A6U C15U A25G | 0.21
12 | G35A U38A C45G | 0
13 | C10A G22A A24G U32A | 0.02
14 | G17U C31A G40A C45A | 0.04
15 | A6C A12C C13A A16G | 0.03
16 | G5A A12C C31G G36C | 0.03
17 | G1C C10G C13A G29U | 0
18 | C15G G17A C23U G33A | 0.08
19 | G2C C13U A16C | 0.15
20 | A12C C13A C37U | 0.03
21 | U9A A12G C18U A25C | 0.01

Row | Variant | self-cleavage
22 | U9G C10G U28G | 0
23 | G2C A24C G33U | 0.12
24 | C3G C23U G40A | 0.26
25 | C10A G30A C31G | 0.01
26 | U9A A12G A25U | 0
27 | A6U A12U C42G | 0.08
28 | G2A A16C G27U U32A G40A G44U | 0.31
29 | A11G G27C U38G C42A G44C C46A | 0
30 | C8A A12G A26C U34G C42U | 0.07
31 | C3G G21C A25G G35C | 0.09
32 | C3A C31A U38C A39C | 0.05
33 | C10U C23G G40A | 0
34 | C3U A6C A11U C15U G35U G36U C42A | 0.01
35 | A12U G29U G40A | 0.19
36 | A24U G29A G30U | 2.08
37 | U9A A39C C42A | 0.06
38 | G7A C23G G27C | 0
39 | G21C A24U U38C | 1.47
40 | C42G C45G C46G | 0.08
41 | G5C C15A G21U G36C | 0.03
42 | C23U A24C G30U C42A | 0.1

Row | Variant | self-cleavage
43 | C10U U20A C37G G40U | 0.01
44 | G2A G17U C42A | 0.12
45 | G2C G5C A26C C31U C37U G40C | 0.01
46 | C3U C15A G27U U28A G29U | 0.19
47 | C18A U38A A39C | 0.89
48 | G1C G17U G21C | 0.06
49 | G2A U38G C46G | 0.02
50 | G5U U28C U32C | 0.01
51 | C3A G7A C23G A24U G30C C31U | 0.2
52 | G1C G5U A6G C10A C46A | 0
53 | C31A U43G G44C | 0.04
54 | A25U G29U U32G C37A | 0.05
55 | G1A G2A G33U C37G | 0.18
56 | G1C A4C C15A C23A | 0.01
57 | A11U G30C U32C | 0.05
58 | G5C C10A U32A A41U | 0.02
59 | C8U A14G G27U A41U | 0.21
60 | G1A A16G G33C C45A | 0.01
61 | A16C G19U A25C A39G | 0.05
62 | C8A U20G G29A | 0.11
63 | G19C C23U A25C A26G G35U A41U | 0.05

Row | Variant | self-cleavage
64 | G2U G7C C13A G19U G33C | 0.02
65 | G7A U9A C15G U20C G29A | 0.15
66 | C10U G17U G35U | 0.03
67 | G2U G19A U28A G30A G44U C46U | 0.04
68 | G2U C18U U28A C31G | 0.02
69 | A4C G5A A16G | 0.04
70 | C10A A16G G21U C37G | 0.01
71 | C15A A25C G27U G36A G44C | 0.03
72 | G2A C8G C23G A26U U34C | 0.2
73 | G1C A4C C8G G27U G35A C45U | 0.01
74 | G19U U28A G36U A39C C42A | 0.02
75 | C10G A26G U28C | 0.16
76 | G1A C15A C37A | 0.04
77 | C3G A4C C15U U20A A41C | 0.14
78 | U28C C31G U43C | 0.05
79 | U9A G27A U43A C46A | 0.1
80 | A16G A24U C37A | 0.04
81 | C8G A14G A24G G40C | 0.02
82 | G35C U38C A39C | 0.08
83 | C10U U32C G44A | 0.06
